# From the antibiotic and cytotoxicity screens of Wong et al. (2023)
# Some of the results follow.
# Columns and labels:
# HSkMC = human skeletal muscle cells; assay: cytotoxicity call (relative viability < 0.9); conditions: 10 µM
# HepG2 = assay: cytotoxicity call (relative viability < 0.9); conditions: 10 µM
# S. aureus RN4220 = assay: growth inhibition call (relative growth <= 0.2); conditions: 50 µM
SMILES,cytotoxicity call (HSkMC),cytotoxicity call (HepG2),growth inhibition call (S. aureus RN4220)
O=C(O)c1ccccc1C(=O)Nc1ccc(S(=O)(=O)Nc2nccs2)cc1,inactive,inactive,inactive
C[C@@H]1CN([C@H](C)CO)C(=O)c2cc(NC(=O)Nc3ccc(F)cc3)ccc2O[C@@H](C)CCCCO[C@H]1CN(C)C(=O)Nc1ccc(C(F)(F)F)cc1,inactive,active,inactive
CC(C)CC#Cc1ccc2c(c1)O[C@@H](CN(C)C(=O)c1ccncc1)[C@@H](C)CN([C@@H](C)CO)S2(=O)=O,inactive,inactive,inactive
C=CCN1C(=O)[C@]2(O[C@H](CCn3cc(CCO)nn3)[C@@H]([Si](C)(C)c3ccc(OC)cc3)[C@@H]2C)c2cc(N3CCC3=O)ccc21,inactive,inactive,inactive
C[C@H]1CN([C@@H](C)CO)C(=O)Cc2cc(NC(=O)Nc3cccc4ccccc34)ccc2O[C@@H]1CN(C)Cc1ccc(Oc2ccccc2)cc1,inactive,inactive,inactive
C[C@H](CO)N1C[C@H](C)[C@@H](CN(C)C(=O)NC2CCCCC2)Oc2ccc(NC(=O)C3CC3)cc2CC1=O,inactive,inactive,inactive
NC(=O)C1N=CN([C@@H]2O[C@H](CO)[C@@H](O)[C@H]2O)C1=O (some centres not stated),inactive,inactive,inactive
CC(C)C[C@H](NC(=O)[C@H]1O[C@@H]1C(=O)O)C(=O)NCCCCNC(=N)N,inactive,inactive,inactive
C[C@@H]1CN([C@@H](C)CO)C(=O)c2cc(NC(=O)c3ccncc3)ccc2O[C@@H](C)CCCCO[C@H]1CN(C)Cc1ccc(C(F)(F)F)cc1,inactive,inactive,inactive
